# Data as given in patent US10792289B2 (Horizon Orphan LLC, priority 2009, dated 2020).
# Test system: stable CF patients
# Assay: Phase 2 study: pulmonary function (FEV1, FVC, FEF 25-75)
# Assay type: in vivo, human
# Conditions: MITT population
# Experimental: The following dosage regimens (as nebulizer loaded doses) were evaluated: 120 mg QD (daily); 240 mg QD (daily); and 240 mg BID (twice daily).
# Efficacy endpoints including clinical endpoints, pulmonary function tests, and additional microbiological parameters were assessed as change from Day 1 to subsequent visits where the endpoint data was collected. Time to need for intravenous/oral/inhaled anti-pseudomonal antimicrobials were assessed from Day 1 until final visit using survival analysis. The primary population for efficacy analysis was the EE population, but efficacy endpoints were also analyzed using the MITT population.
# Changes in FEV1 (forced expiratory volume in 1 second), FVC (forced vital capacity) and FEF 25-75 (forced expiratory flow 25-75%) from Day 1 to all subsequent visits were determined for patients. Tables 26 and 27 summarize the results for FEV1 measurements in EE and MITT populations, respectively. FIGS. 7 and 8 show graphs of percent change in FEV1 (L) and percent change in FEV1(L) vs. placebo, respectively, at Day 28 for the EET population treated with placebo, 120 mg QD, 240 mg QD, or 240 mg BID. […] Tables 28 and 29 summarize the results for predicted FEVI measurements in EE and MITT populations, respectively. Tables 30 and 31 summarize results for FEF 25-75 measurements in EE and MITT populations, respectively.
smiles,measurement,setting,value
"C[C@H]1COc2c(N3CCN(C)CC3)c(F)cc3c(=O)c(C(=O)O)cn1c23 [Levofloxacin, levofloxacin]","Change in % predicted FEV1, Day 1 to Day 14","120 mg QD, mean",0.81
same,"Change in % predicted FEV1, Day 1 to Day 14","120 mg QD, median",1.00
same,"Change in % predicted FEV1, Day 1 to Day 14","240 mg BID, mean",3.66
same,"Change in % predicted FEV1, Day 1 to Day 14","240 mg BID, median",2.50
same,"Change in % predicted FEV1, Day 1 to Day 14","240 mg QD, mean",1.70
same,"Change in % predicted FEV1, Day 1 to Day 14","240 mg QD, median",1.00
same,"Change in % predicted FEV1, Day 1 to Day 14","combined 240 mg QD and BID, mean",2.69
same,"Change in % predicted FEV1, Day 1 to Day 14","combined 240 mg QD and BID, median",2.00

# Entries with a single value are a further part of the results.
